In the supplement of paper PMC7826260:
This is one part of the list. Each Rep nickase domain was tested in vitro on the same pool of single strands for 1 h at 37 °C with 3 µM enzyme; only the middle of the 90-letter strands is printed. The score is log2 (uncut reads / reads without enzyme); uncut sequences lie near 0, cut ones below; no hit call is given. Reads are scaled to the total, so uncut sequences can rise above 0 when many others are cut.

Legend:
Test in all cases: uncleaved DNA left, log2 of reads against the no-enzyme library (log2 ratio); higher = less cleavage (more negative = more Rep cleavage of the k-mer); sequences stand for … in CTCGTCCG…ACCGGAGA
[1] = tested on: T1, Rep nickase domain of Muscovy duck circovirus
T1 sequence (Rep 1-111, printed without the tag): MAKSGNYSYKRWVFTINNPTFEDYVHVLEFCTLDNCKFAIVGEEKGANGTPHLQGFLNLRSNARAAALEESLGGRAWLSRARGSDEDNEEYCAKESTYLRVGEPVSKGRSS
Experimental: (§1)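 A pool of 90-nt single-stranded DNAs with seven random bases just before the constant AC of the nick site (name = the seven bases) was cut by 3 µM recombinant His6-SUMO-tagged Rep nickase domain (300 nM DNA, 50 mM HEPES pH 8.0, 50 mM NaCl, 1 mM MnCl2, 1 h, 37 °C, three replicates). Uncut DNA was amplified and sequenced.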

[2] = tested on: T2, Rep nickase domain of banana bunchy top virus
T2 sequence (Rep 1-94, printed without the tag): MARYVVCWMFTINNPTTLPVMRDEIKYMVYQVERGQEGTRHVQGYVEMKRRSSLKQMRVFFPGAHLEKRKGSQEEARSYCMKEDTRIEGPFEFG
Experimental: as §1

[3] = tested on: T3, Rep nickase domain of cabbage leaf curl virus
T3 sequence (Rep 1-116, printed without the tag): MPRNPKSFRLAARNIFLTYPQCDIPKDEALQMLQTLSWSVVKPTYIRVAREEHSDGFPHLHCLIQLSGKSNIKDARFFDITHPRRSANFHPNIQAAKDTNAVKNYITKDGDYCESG
Experimental: as §1

[4] = tested on: T4, Rep nickase domain of chickpea chlorotic dwarf virus
T4 sequence (Rep 1-124, printed without the tag): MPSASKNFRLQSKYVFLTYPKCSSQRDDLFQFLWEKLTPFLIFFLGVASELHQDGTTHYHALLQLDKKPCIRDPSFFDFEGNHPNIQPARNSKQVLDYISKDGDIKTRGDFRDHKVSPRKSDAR
Experimental: as §1

[5] = tested on: T5, Rep nickase domain of faba bean necrotic yellows virus
T5 sequence (Rep 1-98, printed without the tag): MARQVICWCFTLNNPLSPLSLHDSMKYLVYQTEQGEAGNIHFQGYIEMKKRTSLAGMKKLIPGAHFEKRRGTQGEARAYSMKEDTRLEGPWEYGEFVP
Experimental: as §1

[6] = tested on: T6, Rep nickase domain of maize striate mosaic virus
T6 sequence (Rep 1-117, printed without the tag): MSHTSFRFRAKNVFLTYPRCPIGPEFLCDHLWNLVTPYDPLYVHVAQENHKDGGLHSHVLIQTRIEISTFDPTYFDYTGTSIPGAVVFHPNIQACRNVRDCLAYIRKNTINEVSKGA
Experimental: as §1

[7] = tested on: T7, Rep nickase domain of porcine circovirus 2
T7 sequence (Rep 2-116, printed without the tag): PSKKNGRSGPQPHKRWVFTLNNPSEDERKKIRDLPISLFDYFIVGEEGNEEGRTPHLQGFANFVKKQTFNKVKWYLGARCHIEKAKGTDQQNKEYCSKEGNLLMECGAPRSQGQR
Experimental: as §1

[8] = tested on: T8, Rep nickase domain of tomato yellow leaf curl virus
T8 sequence (Rep 1-136, printed without the tag): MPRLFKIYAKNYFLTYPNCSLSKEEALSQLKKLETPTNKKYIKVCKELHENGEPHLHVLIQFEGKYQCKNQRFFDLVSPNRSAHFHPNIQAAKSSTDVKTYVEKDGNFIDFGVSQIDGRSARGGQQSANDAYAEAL
Experimental: as §1

[9] = tested on: T9, Rep nickase domain of wheat dwarf virus
T9 sequence (Rep 1-137, printed without the tag): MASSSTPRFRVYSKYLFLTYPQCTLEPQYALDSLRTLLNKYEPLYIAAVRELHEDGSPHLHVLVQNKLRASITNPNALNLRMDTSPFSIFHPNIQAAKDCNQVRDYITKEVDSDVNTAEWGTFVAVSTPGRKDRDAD
Experimental: as §1

Sequence | uncleaved DNA left (log2) [1] | uncleaved DNA left (log2) [2] | uncleaved DNA left (log2) [3] | uncleaved DNA left (log2) [4] | uncleaved DNA left (log2) [5] | uncleaved DNA left (log2) [6] | uncleaved DNA left (log2) [7] | uncleaved DNA left (log2) [8] | uncleaved DNA left (log2) [9]
AGAGTTA | 0.0887 | 0.0375 | 0.218 | -0.325 | 0.0721 | 0.282 | -0.292 | 0.17 | 0.222
GCTTTCG | 0.00323 | -0.0851 | -0.772 | -0.24 | -0.136 | -0.939 | 0.104 | -0.0896 | -0.11
CGTACTA | -0.0107 | -0.0749 | -0.0429 | -0.219 | 0.0303 | 0.788 | -0.12 | 0.0324 | 0.125
CTCCAGA | -0.0184 | -0.155 | -0.00932 | -0.0961 | -0.149 | -0.752 | 0.00848 | 0.00185 | 0.0155
CGGCCGC | -0.0584 | 0.0581 | -0.0874 | -0.025 | 0.00876 | -0.157 | -0.00422 | -0.0223 | -0.0191
TCTATTC | 0.153 | 0.018 | 0.105 | -0.0505 | -0.00635 | -0.777 | 0.0471 | 0.0621 | -0.0597
AGTTATG | -0.013 | -0.0486 | -0.0403 | 0.13 | -0.0543 | -0.0692 | -0.0514 | -0.00886 | 0.0156
GACCACG | -0.0422 | -0.189 | -0.874 | -0.369 | -0.0488 | -0.989 | -0.196 | -0.027 | -0.114
GTCCCCA | 0.0455 | 0.00662 | 0.214 | 0.804 | -0.0329 | 1.67 | -0.0425 | 0.0809 | 0.0797
CTCATTT | -0.035 | -0.134 | -0.358 | -2.51 | -0.0897 | -1.09 | -0.299 | -0.16 | -0.15
TGAGACC | -0.0199 | 0.0434 | 0.259 | 0.764 | -0.0583 | -0.0659 | 0.00854 | 0.077 | 0.131
TCTTATG | -0.0195 | -0.166 | -0.369 | -0.559 | -0.0514 | -1.06 | -0.163 | 0.0812 | -0.217
TGCTCGA | -0.0834 | 0.00376 | -0.339 | -0.657 | -0.212 | -0.941 | -0.0712 | -0.206 | -0.205
ATATTTA | -0.0948 | -0.0406 | -0.117 | -1.84 | -0.107 | -0.691 | -0.426 | -0.0324 | -0.0484
GACAGGT | 0.0872 | -0.0339 | 0.396 | 0.919 | -0.000833 | 1.3 | 0.14 | 0.0444 | 0.0361
TAGCATC | -0.0116 | -0.0038 | -0.117 | -0.448 | -0.0248 | -0.434 | -0.38 | 0.019 | 0.0413
CAGGCAA | 0.0173 | -0.0841 | 0.045 | 0.213 | -0.0978 | 0.0363 | 0.0135 | -0.0527 | 0.000972
GACATTC | 0.105 | 0.0464 | 0.865 | 1.85 | 0.0857 | 2.06 | 0.187 | 0.0757 | 0.282
CACTAGG | 0.0336 | 0.128 | 0.13 | 0.781 | 0.085 | 0.148 | 0.175 | -0.0289 | 0.161
GTTTCAG | -0.0323 | 0.059 | 0.000434 | 0.245 | 0.0384 | -0.0875 | 0.15 | 0.0955 | -0.0407
TGATGAA | 0.0302 | 0.0635 | 0.234 | -0.179 | 0.0528 | -0.0358 | -0.0928 | 0.0718 | -0.00608
AATGCAT | 0.0442 | -0.038 | -0.139 | -0.128 | -0.00727 | -0.225 | -0.192 | -0.0458 | 0.0694
TGATAAC | -0.0612 | 0.0442 | 0.0263 | -0.326 | 0.0216 | 0.994 | -0.00736 | -0.0353 | 0.0219
GCCATTA | -0.0886 | 0.0386 | 0.023 | -0.0221 | -0.274 | -0.303 | 0.0649 | 0.108 | -0.00725
CTACACA | 0.0456 | 0.101 | -0.186 | -1.94 | 0.0856 | -0.609 | 0.0133 | 0.0607 | 0.00268
CGCGGTT | 0.204 | -0.0107 | -0.0253 | -0.591 | 0.096 | -0.131 | -0.0352 | 0.0912 | -0.0323
TTCCGAT | 0.108 | 0.00195 | 0.557 | 0.695 | -0.0222 | 1.38 | 0.0937 | 0.0281 | 0.053
CGCAATC | -0.0444 | 0.0157 | -0.243 | -0.102 | -0.0798 | -0.358 | -0.0553 | -0.0803 | -0.0101
AATACAT | 0.0928 | -0.00135 | 0.101 | -0.396 | 0.00195 | 0.49 | -1.64 | 0.156 | 0.121
GTAGGCA | 0.059 | 0.0195 | 0.387 | 0.975 | 0.065 | 1.17 | 0.0563 | 0.0675 | 0.101
